# Among all 310,000 compounds or so, about 14,000 (4.5%) showed an effect of 50% or more. Effects have a minus sign here. The list shows a part of the results.
# Biological target: human ether-à-go-go-related gene (hERG) potassium channel (human, UniProt Q12809)
# Assay: primary screen, population patch clamp on CHO cells stably expressing hERG
# 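Note: peak tail current of the secondary pulse compared with the same well before compound.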
# Chain of human ether-à-go-go-related gene (hERG) potassium channel (Q12809 whole entry, looked up): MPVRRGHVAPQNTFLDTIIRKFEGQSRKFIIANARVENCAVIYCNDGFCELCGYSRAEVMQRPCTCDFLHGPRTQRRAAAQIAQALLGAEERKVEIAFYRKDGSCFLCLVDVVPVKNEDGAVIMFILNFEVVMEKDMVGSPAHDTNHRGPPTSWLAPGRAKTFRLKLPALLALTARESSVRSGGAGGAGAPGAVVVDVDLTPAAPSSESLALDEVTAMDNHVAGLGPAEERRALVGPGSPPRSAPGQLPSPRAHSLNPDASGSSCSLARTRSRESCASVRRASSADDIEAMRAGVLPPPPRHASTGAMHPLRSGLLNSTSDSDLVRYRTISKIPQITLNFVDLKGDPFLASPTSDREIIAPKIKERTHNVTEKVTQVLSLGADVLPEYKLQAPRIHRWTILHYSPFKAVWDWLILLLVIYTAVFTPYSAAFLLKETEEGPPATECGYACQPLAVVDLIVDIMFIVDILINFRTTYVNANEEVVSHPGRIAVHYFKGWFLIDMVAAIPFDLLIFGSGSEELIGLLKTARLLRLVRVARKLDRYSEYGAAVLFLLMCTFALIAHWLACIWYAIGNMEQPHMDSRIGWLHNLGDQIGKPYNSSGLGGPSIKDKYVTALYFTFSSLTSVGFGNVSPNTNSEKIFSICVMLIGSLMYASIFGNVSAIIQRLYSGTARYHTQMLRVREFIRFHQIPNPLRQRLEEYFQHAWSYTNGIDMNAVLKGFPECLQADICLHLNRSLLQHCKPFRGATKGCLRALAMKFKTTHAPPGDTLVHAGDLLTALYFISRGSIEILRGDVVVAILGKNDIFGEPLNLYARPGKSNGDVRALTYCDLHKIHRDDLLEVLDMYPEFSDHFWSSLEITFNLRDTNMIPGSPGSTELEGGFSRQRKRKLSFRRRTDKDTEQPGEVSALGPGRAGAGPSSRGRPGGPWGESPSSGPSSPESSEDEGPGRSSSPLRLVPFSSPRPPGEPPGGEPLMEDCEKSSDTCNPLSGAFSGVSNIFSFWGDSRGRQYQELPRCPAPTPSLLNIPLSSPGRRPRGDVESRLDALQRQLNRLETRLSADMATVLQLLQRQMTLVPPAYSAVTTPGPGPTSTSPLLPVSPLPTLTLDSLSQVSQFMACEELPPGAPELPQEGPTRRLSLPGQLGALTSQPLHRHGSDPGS
row,Compound,"hERG current change (%, negative = inhibition) at 10uM [%]"
1,Cc1ccc(C2CC(c3cccc(Br)c3)n3nc(N)nc3N2)cc1 (stereo not drawn),-2.47
2,Cc1nnc2ccc(-c3ccc(NC(=O)c4ccco4)cc3)nn12,-9.73
3,Nc1cc(Cl)c(N)cc1Cl,3.99
4,CSc1nsc(SCC(=O)Nc2cc(C(=O)O)ccc2C)n1,6.92
5,CCOC(=O)N1CCN(CC(=O)Nc2ccc(C)cc2)CC1,-63.2
6,O=C(COC(=O)CNC(=O)c1ccc(Cl)cc1)Nc1cccc(S(=O)(=O)N2CCCC2)c1,-33.5
7,COc1ccc([C@@H]2CC=C(C(=O)O)[C@H](c3cccc(Cl)c3)N2S(=O)(=O)c2ccc(C)cc2)cc1OC,8.67
8,O=C(c1ccc(NS(=O)(=O)c2ccc3[nH]c(=O)[nH]c3c2)cc1)N1CCN(c2ccccc2O)CC1,-0.33
9,O=C(CCc1nc2ccccc2s1)OCc1ccccc1,-14.1
10,COc1ccc(-c2[nH]ncc2CN2CCCO2)c(F)c1,9.1
11,COc1ccc(Nc2nc(NCc3ccco3)nc(N/N=C/c3ccc(O)cc3)n2)cc1,-45.6
12,CC(=O)c1ccccc1C(=O)N1CCCC(N2CCN(Cc3ccc4c(c3)OCO4)CC2)C1 (stereo not drawn),-6.28
13,CCOC(=O)N1CCN(c2c(N3CC=C(c4ccccc4)CC3)c(=O)c2=O)CC1,-51.9
14,O=C(CC1S/C(=N/N=C/c2c[nH]c3ccccc23)NC1=O)Nc1ccccc1 (stereo not drawn),6.67
15,Cc1ccc(-c2nnc(SCC(=O)Nc3sc(C)c(C)c3C#N)n2C)cc1,-54.1
16,O=C(c1ccccc1NS(=O)(=O)c1ccc(Cl)cc1)N1CCc2ccccc21,1.76
17,O=C(Nc1cc(C(F)(F)F)ccc1N1CCOCC1)c1n[nH]c(=O)c2ccccc12,8.95
18,CN1CCN(C(=O)NC2CCCCC2)CC1.O=C(O)C(=O)O,0.275
19,NC(=O)C1CCN(C(=O)/C(=C/c2ccco2)NC(=O)c2ccccc2)CC1,11.2
20,Cc1cc(C(=O)Nc2cccnc2Cl)on1,-3.33
21,Cc1ccccc1NC(=O)CCS(=O)(=O)c1ccc(Br)cc1,7.36
22,Nc1cc(=O)[nH]c(SCCOc2ccccc2)n1,11.5
23,COC(=O)c1ccc(C2C(C#N)=C(N)Oc3cc(O)ccc32)cc1 (stereo not drawn),8.69

row,Compound,"hERG current change (%, negative = inhibition) at 10uM [%]"
1,O=c1c2cc(Cl)ccc2nc(-c2ccc([N+](=O)[O-])cc2)n1O,6.05
2,CCn1nc(CC(=O)Nc2ccc(-n3cnnn3)c(OC)c2)c2ccccc2c1=O,4.46
3,CC(C)Oc1ccc(C(=O)OCC(=O)NC2CCCCCC2)cc1,7.83
4,COC(C)(C)CCCC(C)C/C=C/C(C)=C/C(=O)OC(C)C (stereo not drawn),10.3
5,C/C(=N\NC(=O)c1ccccc1)c1nc2ccccc2n1C,-16.1
6,CCC(C(=O)NCCC(C)C)n1ccc2cc(S(=O)(=O)N3CCCCC3)ccc21 (stereo not drawn),6.75
7,COc1cccc(NC(=O)CCN2C(=O)c3ccccc3S2(=O)=O)c1,-13.7
8,Nc1nc(SCC(=O)c2ccc(Oc3ccccc3)cc2)n[nH]1,-48.8
9,O=C(Nc1ccc(Cl)cc1)Nc1nnc(Cc2ccc([N+](=O)[O-])cc2)s1,5.7
10,O=c1[nH]cc(COCc2ccccc2)c(=O)[nH]1,5.51
11,Cc1noc(C)c1C(=O)Nc1nc2ccc(Cl)cc2s1,13.3
12,C[N+]1(CC(=O)OCCCc2ccccc2)CCCCC1.[I-],21
13,CCN1CCN(Cc2cccc(Oc3ccc(Cl)cc3)c2)CC1,-56.9
14,COc1ccc(-c2cc(=O)c(C(=O)c3ccc(C)cc3)n[nH]2)cc1,10.3
15,Cc1ccc(C(=O)N2CCN(c3ccc(NC(=O)CSc4ccc(Cl)cc4)cc3)CC2)cc1,11.4
16,COc1ccccc1C(=O)Nc1cc(-c2ccc(C)cc2)no1,10.3
17,O=C(N/N=C/C1CC=CCC1)c1ccc(Cl)cc1O (stereo not drawn),0.333
18,CN(c1ccccc1)c1nc(N)c([N+](=O)[O-])c(NCc2ccco2)n1,-7.2
19,O=C(COc1ccc([N+](=O)[O-])cc1)Nc1ccc(N2CCN(C(=O)c3ccco3)CC2)cc1,6.27
20,COc1ccc(CNC(=O)C2CCN(S(=O)(=O)c3ccccc3)CC2)cc1,19.5
21,COc1ccc(OCCn2c(NC(=O)c3ccco3)nc3ccccc32)cc1,5.55
22,NP(=O)(OCC(F)(F)F)Oc1ccccc1 (stereo not drawn),21.1

# — paper PMC4336329 (PLoS ONE, 2015)
